# According to the supplement of paper PMC8728848:
# The list shows a part of the results.
# B1: Als3-N (Candida albicans) (protein)
# chain: KTITGVFNSFNSLTWSNAATYNYKGPGTPTWNAVLGWSLDGTSASPGDTFTLNMPCVFKFTTSQTSVDLTAHGVKYATCQFQAGEEFMTFSTLTCTVSNTLTPSIKALGTVTLPLAFNVGGTGSSVDLEDSKCFTAGTNTVTFNDGGKKISINVDFERSNVDPKGYLTDSRVIPSLNKVSTLFVAPQCANGYTSGTMGFANTYGDVQIDCSNIHVGITKGLNDWNYPVSSESFSYTKTCSSNGIFITYKNVPAGYRPFVDAYISATDVNSYTLSYANEYTCAGGYWQRAPFTLRWTGYRNSDAGSNGIVIVATTRTVTDSTTAVTTLPFDPNRDKTKTIEILKPIPTTTITTSYVGVTTSYLTKTAPIGETATVIVDIPYHTTTTVTSKWTGTITSTTTHTNPTDSIDTVIVQVP
# Tests used:
# Assay in all cases: glycan array binding signal (z-score within array); higher = stronger binding
# Conditions in all cases: glycan notation: IUPAC condensed, linker removed
# [1] = target: Gal(b1-3)GlcNAc(b1-2)Man(a1-3)[Gal(b1-3)GlcNAc(b1-2)Man(a1-6)]Man(b1-4)GlcNAc(b1-4)GlcNAc
# Method in brief: (§1)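 Columns mapping to the same glycan were averaged after glycan names were converted to IUPAC-condensed notation. The data come from 3228 arrays in the Consortium for Functional Glycomics database, limited to those with an available protein sequence. Binding is reported as a within-array Z-score averaged across arrays of one protein sequence and across linkers.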
# [2] = target: Gal(b1-3)GlcNAc(b1-2)Man(a1-3)[Gal(b1-3)GlcNAc(b1-2)Man(a1-6)]Man(b1-4)GlcNAc(b1-4)[Fuc(a1-6)]GlcNAc
# Method in brief: as §1
# [3] = target: Gal(b1-3)GlcNAc(b1-2)Man(a1-3)[GlcNAc(b1-4)][Gal(b1-3)GlcNAc(b1-2)Man(a1-6)]Man(b1-4)GlcNAc(b1-4)GlcNAc
# Method in brief: as §1
# [4] = target: Gal(b1-3)GlcNAc(b1-2)[Gal(b1-3)GlcNAc(b1-6)]Man(a1-6)[Gal(b1-3)GlcNAc(b1-2)Man(a1-3)]Man(b1-4)GlcNAc(b1-4)GlcNAc
# Method in brief: as §1
# [5] = target: Gal(b1-3)GlcNAc(b1-3)Gal(b1-3)GlcNAc
# Method in brief: as §1
# [6] = target: Gal(b1-3)GlcNAc(b1-3)Gal(b1-4)Glc
# Method in brief: as §1
# [7] = target: Gal(b1-3)GlcNAc(b1-3)Gal(b1-4)GlcNAc
# Method in brief: as §1
# [8] = target: Gal(b1-3)GlcNAc(b1-3)Gal(b1-4)GlcNAc(b1-2)Man(a1-3)[Gal(b1-3)GlcNAc(b1-3)Gal(b1-4)GlcNAc(b1-2)Man(a1-6)]Man(b1-4)GlcNAc(b1-4)GlcNAc
# Method in brief: as §1
# [9] = target: Gal(b1-3)GlcNAc(b1-3)Gal(b1-4)GlcNAc(b1-2)[Gal(b1-3)GlcNAc(b1-3)Gal(b1-4)GlcNAc(b1-6)]Man(a1-6)[Gal(b1-3)GlcNAc(b1-3)Gal(b1-4)GlcNAc(b1-2)Man(a1-3)]Man(b1-4)GlcNAc(b1-4)[Fuc(a1-6)]GlcNAc
# Method in brief: as §1
# [10] = target: Gal(b1-3)GlcNAc(b1-3)Gal(b1-4)GlcNAc(b1-3)Gal(b1-4)GlcNAc(b1-2)[Gal(b1-3)GlcNAc(b1-3)Gal(b1-4)GlcNAc(b1-3)Gal(b1-4)GlcNAc(b1-6)]Man(a1-6)[Gal(b1-3)GlcNAc(b1-3)Gal(b1-4)GlcNAc(b1-3)Gal(b1-4)GlcNAc(b1-2)Man(a1-3)]Man(b1-4)GlcNAc(b1-4)[Fuc(a1-6)]GlcNAc
# Method in brief: as §1
# [11] = target: Gal(b1-3)GlcNAc(b1-3)Gal(b1-4)GlcNAc(b1-6)[Gal(b1-3)GlcNAc(b1-3)]Gal(b1-4)Glc
# Method in brief: as §1
# [12] = target: Gal(b1-3)GlcNAc(b1-3)Gal(b1-4)[Fuc(a1-3)]GlcNAc
# Method in brief: as §1
# [13] = target: Gal(b1-3)GlcNAc(b1-3)Gal(b1-4)[Fuc(a1-3)]GlcNAc(b1-6)[Gal(b1-3)GlcNAc(b1-3)]Gal(b1-4)Glc
# Method in brief: as §1
# [14] = target: Gal(b1-3)GlcNAc(b1-3)GalNAc
# Method in brief: as §1
# [15] = target: Gal(b1-3)GlcNAc(b1-6)Gal(b1-4)GlcNAc
# Method in brief: as §1
# [16] = target: Gal(b1-3)GlcNAc(b1-6)GalNAc
# Method in brief: as §1
# [17] = target: Gal(b1-3)GlcNAc(b1-6)[Gal(b1-3)]GalNAc
# Method in brief: as §1
# Gal(b1-3)GlcNAc6S = target: Gal(b1-3)GlcNAc6S
# Method in brief: as §1
# [18] = target: Gal(b1-3)[Fuc(a1-4)]GlcNAc
# Method in brief: as §1
# [19] = target: Gal(b1-3)[Fuc(a1-4)]GlcNAc(b1-2)Man
# Method in brief: as §1
# [20] = target: Gal(b1-3)[Fuc(a1-4)]GlcNAc(b1-2)Man(a1-3)[Gal(b1-3)[Fuc(a1-4)]GlcNAc(b1-2)Man(a1-6)]Man(b1-4)GlcNAc(b1-4)[Fuc(a1-6)]GlcNAc
# Method in brief: as §1
# [21] = target: Gal(b1-3)[Fuc(a1-4)]GlcNAc(b1-3)Gal(b1-3)[Fuc(a1-4)]GlcNAc
# Method in brief: as §1
# [22] = target: Gal(b1-3)[Fuc(a1-4)]GlcNAc(b1-3)Gal(b1-4)[Fuc(a1-3)]GlcNAc
# Method in brief: as §1
# [23] = target: Gal(b1-3)[Fuc(a1-4)]GlcNAc(b1-6)GalNAc
# Method in brief: as §1
# [24] = target: Gal(b1-3)[GlcNAc(b1-6)]GalNAc
# Method in brief: as §1
# [25] = target: Gal(b1-3)[Neu5Ac(a2-6)]GalNAc
# Method in brief: as §1
# [26] = target: Gal(b1-3)[Neu5Ac(a2-6)]GlcNAc(b1-4)Gal(b1-4)Glc
# Method in brief: as §1
# [27] = target: Gal(b1-3)[Neu5Ac(b2-6)]GalNAc
# Method in brief: as §1
# Gal(b1-4)Gal = target: Gal(b1-4)Gal
# Method in brief: as §1
# [28] = target: Gal(b1-4)GalNAc(a1-3)[Fuc(a1-2)]Gal(b1-4)GlcNAc
# Method in brief: as §1
# [29] = target: Gal(b1-4)GalNAc(b1-3)[Fuc(a1-2)]Gal(b1-4)GlcNAc
# Method in brief: as §1
# Gal(b1-4)Glc = target: Gal(b1-4)Glc
# Method in brief: as §1
# Gal(b1-4)Glc6S = target: Gal(b1-4)Glc6S
# Method in brief: as §1
# Gal(b1-4)GlcNAc = target: Gal(b1-4)GlcNAc
# Method in brief: as §1
# [30] = target: Gal(b1-4)GlcNAc(a1-6)Gal(b1-4)GlcNAc
# Method in brief: as §1
# Gal(b1-4)GlcNAc(b1-2)Man = target: Gal(b1-4)GlcNAc(b1-2)Man
# Method in brief: as §1
# [31] = target: Gal(b1-4)GlcNAc(b1-2)Man(a1-3)Man(b1-4)GlcNAc(b1-4)GlcNAc
# Method in brief: as §1
binder,measurement,setting,value
B1,glycan array binding signal (z-score),[1],-0.247
same,glycan array binding signal (z-score),[2],-0.326
same,glycan array binding signal (z-score),[3],0.343
same,glycan array binding signal (z-score),[4],-0.232
same,glycan array binding signal (z-score),[5],-0.169
same,glycan array binding signal (z-score),[6],-0.258
same,glycan array binding signal (z-score),[7],-0.307
same,glycan array binding signal (z-score),[8],-0.096
same,glycan array binding signal (z-score),[9],0.427
same,glycan array binding signal (z-score),[10],0.126
same,glycan array binding signal (z-score),[11],-0.381
same,glycan array binding signal (z-score),[12],-0.281
same,glycan array binding signal (z-score),[13],-0.286
same,glycan array binding signal (z-score),[14],-0.233
same,glycan array binding signal (z-score),[15],-0.052
same,glycan array binding signal (z-score),[16],0.261
same,glycan array binding signal (z-score),[17],-0.203
same,glycan array binding signal (z-score),Gal(b1-3)GlcNAc6S,-0.273
same,glycan array binding signal (z-score),[18],-0.201
same,glycan array binding signal (z-score),[19],0.115
same,glycan array binding signal (z-score),[20],-0.406
same,glycan array binding signal (z-score),[21],2.42
same,glycan array binding signal (z-score),[22],-0.251
same,glycan array binding signal (z-score),[23],1.61
same,glycan array binding signal (z-score),[24],-0.144
same,glycan array binding signal (z-score),[25],0.697
same,glycan array binding signal (z-score),[26],-0.253
same,glycan array binding signal (z-score),[27],0.915
same,glycan array binding signal (z-score),Gal(b1-4)Gal,-0.333
same,glycan array binding signal (z-score),[28],-0.267
same,glycan array binding signal (z-score),[29],-0.284
same,glycan array binding signal (z-score),Gal(b1-4)Glc,-0.209
same,glycan array binding signal (z-score),Gal(b1-4)Glc6S,-0.158
same,glycan array binding signal (z-score),Gal(b1-4)GlcNAc,-0.168
same,glycan array binding signal (z-score),[30],-0.28
same,glycan array binding signal (z-score),Gal(b1-4)GlcNAc(b1-2)Man,-0.24
same,glycan array binding signal (z-score),[31],-0.288
